Some of the results follow. At the low end of the ranking the order means little.

In the assay the target is GST-SBP-SLBP (stem-loop binding protein) (UniProt Q14493). The assay is described as follows: targeted RNA Bind-n-Seq.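 Note: DESeq read counts versus GST-SBP nonspecific binding control pulldown.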 The settings on record: RBNS binding buffer: 25 mM Tris pH 7.5, 150 mM KCl, 3 mM MgCl2, 0.1% Tween, 0.5 mg/mL BSA, 1 mM DTT; 27 nM protein, 750 pM RNA pool; temperature not stated; high values mean tight binding.
In the case of “GGUCACGUCUCAAUCAACUCAAAAGAGGGGGGGAAAACCCCUUUGCCCUCGAUAUCAACAGCUCGCAGUCAAG”, the binding signal (log2 fold change) worked out at 0.336.

Consider “GGUCACGUCUCAAUCAACUCAUCGUCAGGAGUUUACUCCUGUAUAUUCAACAGCUCGCAGUCAAG”, for which the binding signal (log2 fold change) was 0.0131. As for “GGUCACGUCUCAAUCAACUCUUCGCCCAGGGAAAUCCCUGGUUUAUUCAACAGCUCGCAGUCAAG”, the binding signal (log2 fold change) was -0.0804. With “GGUCACGUCUCAAUCAACUCUUUCCCCAGGGAAACCCCUGGCUUACUCAACAGCUCGCAGUCAAG” the figure was 0.0124; with “GGUCACGUCUCAAUCAACUCAUUCUCAGGAGUUUGCUCCUGUUAUUUCAACAGCUCGCAGUCAAG”, 0.0173; with “GGUCACGUCUCAAUCAACUCCCUCGAGGGGGGGAAAACCCCUUUACCCUCUAAAUCAACAGCUCGCAGUCAAG”, -0.235. The same measure for “GGUCACGUCUCAAUCAACUCACAAGAGGGGGGGAAAACCCCUUUGCCCUCCAAAUCAACAGCUCGCAGUCAAG”: 0.0913. The same measure for “GGUCACGUCUCAAUCAACUCAACGCCAGGAGUUUUCUCCUGCUAUCUCAACAGCUCGCAGUCAAG”: 0.202; for “GGUCACGUCUCAAUCAACUCUUUCUCCAGGGAAACCCCUGGUAAUGUCAACAGCUCGCAGUCAAG”: -0.146; for “GGUCACGUCUCAAUCAACUCUAUCCCAGGAGUUUACUCCUGUAAAUUCAACAGCUCGCAGUCAAG”: -0.000911.

“GGUCACGUCUCAAUCAACUCAACUCCCAGGGAAAUCCCUGGCAUUUUCAACAGCUCGCAGUCAAG”: the binding signal (log2 fold change) stood at 0.176. With “GGUCACGUCUCAAUCAACUCCUUAGAGGGGGGGAAAACCCCUUUGCCCUCAGAAUCAACAGCUCGCAGUCAAG” the figure was -0.104.

“GGUCACGUCUCAAUCAACUCAGUCCCCAGGGAAAUCCCUGGCUUUUUCAACAGCUCGCAGUCAAG”: the binding signal (log2 fold change) is -0.0694. Take “GGUCACGUCUCAAUCAACUCUAUUCCCAGGGAAACCCCUGGCAUAUUCAACAGCUCGCAGUCAAG”: the binding signal (log2 fold change) was determined as 0.164.

In the case of “GGUCACGUCUCAAUCAACUCAUUUCCAGGAGUUUUCUCCUGCAUUUUCAACAGCUCGCAGUCAAG”, the binding signal (log2 fold change) is -0.0926. Consider “GGUCACGUCUCAAUCAACUCUUCCCCCAGGGAAAACCCUGGUAUUCUCAACAGCUCGCAGUCAAG”, for which the binding signal (log2 fold change) is -0.161. In the case of “GGUCACGUCUCAAUCAACUCUUCCCCCAGGGAAACCCCUGGUAAUGUCAACAGCUCGCAGUCAAG”, the binding signal (log2 fold change) turned out to be 0.182. The same measure for “GGUCACGUCUCAAUCAACUCUAAAGAGGGGGGGAAAACCCCUUUUCCCUCAAUAUCAACAGCUCGCAGUCAAG”: 0.0602; for “GGUCACGUCUCAAUCAACUCAAUCCCCAGGGAAAGCCCUGGCUUUUUCAACAGCUCGCAGUCAAG”: 0.0136. On to “GGUCACGUCUCAAUCAACUCUAUUCCAGGAGUUUACUCCUGCAUAUUCAACAGCUCGCAGUCAAG”, for which the binding signal (log2 fold change) is -0.0348. On to “GGUCACGUCUCAAUCAACUCUCUCGAGGGGGGGAAAACCCCUUUGCCCUCAUUUUCAACAGCUCGCAGUCAAG”, for which the binding signal (log2 fold change) is -0.166.

Take “GGUCACGUCUCAAUCAACUCAUCUCCAGGAGUUUCCUCCUGUAUUUUCAACAGCUCGCAGUCAAG”: the binding signal (log2 fold change) was -0.156. As for “GGUCACGUCUCAAUCAACUCUUUCUCCAGGGAAAACCCUGGCAUAUUCAACAGCUCGCAGUCAAG”, the binding signal (log2 fold change) is -0.134. Consider “GGUCACGUCUCAAUCAACUCUUCCUCAGGAGUUUUCUCCUGUUAACUCAACAGCUCGCAGUCAAG”, for which the binding signal (log2 fold change) is 0.0915. Turning to “GGUCACGUCUCAAUCAACUCCCUAGAGGGGGGGAAAACCCCUUUACCCUCCAUUUCAACAGCUCGCAGUCAAG”, the binding signal (log2 fold change) is -0.455. The same measure for “GGUCACGUCUCAAUCAACUCUCCUGAGGGGGGGAAAACCCCUUUACCCUCUAAAUCAACAGCUCGCAGUCAAG”: 0.0339; for “GGUCACGUCUCAAUCAACUCAAUUCCAGGAGUUUUCUCCUGUUUUUUCAACAGCUCGCAGUCAAG”: -0.0899; for “GGUCACGUCUCAAUCAACUCUACUUCCAGGGAAAACCCUGGCAAUUUCAACAGCUCGCAGUCAAG”: 0.201. With “GGUCACGUCUCAAUCAACUCUAUCCCCAGGGAAAUCCCUGGUUUUUUCAACAGCUCGCAGUCAAG” the figure was -0.112; with “GGUCACGUCUCAAUCAACUCAAUCUCCAGGGAAAUCCCUGGCUAAUUCAACAGCUCGCAGUCAAG”, 0.315; with “GGUCACGUCUCAAUCAACUCUUUUCCAGGAGUUUCCUCCUGCAUUUUCAACAGCUCGCAGUCAAG”, 0.203. “GGUCACGUCUCAAUCAACUCUAUUCCCAGGGAAACCCCUGGCAUACUCAACAGCUCGCAGUCAAG”: the binding signal (log2 fold change) was found to be 0.311. For “GGUCACGUCUCAAUCAACUCAUAAGAGGGGGGGAAAACCCCUUUACCCUCACACUCAACAGCUCGCAGUCAAG”, the binding signal (log2 fold change) is 0.455. As for “GGUCACGUCUCAAUCAACUCCUAAGAGGGGGGGAAAACCCCUUUGCCCUCAAUAUCAACAGCUCGCAGUCAAG”, the binding signal (log2 fold change) is -0.191.

As to “GGUCACGUCUCAAUCAACUCUACUUCCAGGGAAAACCCUGGUAAUCUCAACAGCUCGCAGUCAAG”, the binding signal (log2 fold change) is -0.0047. For the sequence “GGUCACGUCUCAAUCAACUCUAUCUCCAGGGAAAUCCCUGGUUAUUUCAACAGCUCGCAGUCAAG”, the binding signal (log2 fold change) was -0.149.

Turning to “GGUCACGUCUCAAUCAACUCUAUCUCCAGGGAAAGCCCUGGCAUUUUCAACAGCUCGCAGUCAAG”, the binding signal (log2 fold change) worked out at 0.024.

On to “GGUCACGUCUCAAUCAACUCUUUCCCCAGGGAAAGCCCUGGCUUAUUCAACAGCUCGCAGUCAAG”, for which the binding signal (log2 fold change) is -0.0818. Turning to “GGUCACGUCUCAAUCAACUCUUUCGCAGGAGUUUACUCCUGGUAAUUCAACAGCUCGCAGUCAAG”, the binding signal (log2 fold change) is -0.0209. On to “GGUCACGUCUCAAUCAACUCUAGGUCAGGAGUUUUCUCCUGUAAUUUCAACAGCUCGCAGUCAAG”, for which the binding signal (log2 fold change) worked out at 0.0515. Turning to “GGUCACGUCUCAAUCAACUCAUCGUCAGGAGUUUGCUCCUGCUUUUUCAACAGCUCGCAGUCAAG”, the binding signal (log2 fold change) is 0.176. Turning to “GGUCACGUCUCAAUCAACUCAGUUCCAGGAGUUUACUCCUGUAUAUUCAACAGCUCGCAGUCAAG”, the binding signal (log2 fold change) is -0.0101. The same measure for “GGUCACGUCUCAAUCAACUCCCUCGAGGGGGGGAAAACCCCUUUACCCUCUUUAUCAACAGCUCGCAGUCAAG”: -0.123; for “GGUCACGUCUCAAUCAACUCCACGGAGGGGGGGAAAACCCCUUUACCCUCAAAAUCAACAGCUCGCAGUCAAG”: -0.47. With “GGUCACGUCUCAAUCAACUCAUCGCCCAGGGAAACCCCUGGUUAUUUCAACAGCUCGCAGUCAAG” the figure was -0.191. With “GGUCACGUCUCAAUCAACUCUUUCCCCAGGGAAACCCCUGGUAGUCUCAACAGCUCGCAGUCAAG” the figure was -0.102; with “GGUCACGUCUCAAUCAACUCCAUAGAGGGGGGGAAAACCCCUUUACCCUCAUCAUCAACAGCUCGCAGUCAAG”, -0.617.
